PubChem BioAssay AID686979 (National Center for Advancing Translational Sciences (NCATS), 2013)
“And” between values parts separate entries of the source, which are not always exact repeats. Equal entries are not always repeated. The campaign covered roughly 420,000 compounds. About 50,000 (12%) were called active. The inconclusive results got no clear call from the source; some entries with a clear call stand among them for comparison. Calls come from the whole dose curve; as a rule, active = well fitted inhibition curve with a large enough effect; inconclusive = small, poorly fitted or top-dose-only effect; inactive = flat fitted curve, though single readings scatter. No potency is given beside an inconclusive call; the fits are too rough.

Assay: qHTS for Inhibitors of human tyrosyl-DNA phosphodiesterase 1 (TDP1): qHTS in cells in presence of CPT; note: nearly all actives have a fitted effect of over 55% in size
Conditions: chicken DT40 Tdp1-/-;hTDP1 cells + 20 nM CPT, ATP luminescence, 48 h; activity change, negative = growth inhibition: at 46.2 µM (top of the series) unless noted
Summary of the method: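 Cell growth measured by CellTiter-Glo luminescence after a minimum 48 h, 37 C compound exposure with 20 nM CPT in Tdp1-knockout DT40 cells stably expressing hTDP1, seeded 400/well; qHTS titration format.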
% is set by controls: 0 for no effect and ±100 for the full control effect; potency is the fitted concentration of half-maximal effect; tags give direction and shape of the fitted curve.

| Structure (SMILES) | Potency | activity change, negative = growth inhibition |
| --- | --- | --- |
| COc1ccccc1N1CCN(Cc2cccc(Br)c2)CC1 | inconclusive [inhibitor, partial curve] |  |
| O=C1NCN(c2ccccc2)C12CCN(C(c1nnnn1C1CCCC1)C1CC1)CC2 (stereo unspecified) | inconclusive [inhibitor, single point] |  |
| Cc1cc(C=O)c(C)n1C1CCCCC1 | inactive |  |
| CC1CCC/C=C/C2CC(O)CC2C(O)/C=C/C(=O)O1 (stereo unspecified) | active: 0.291 µM |  |
| CCC1C(=O)OC[C@H]1Cc1cncn1C (stereo partly specified) | inactive |  |
| CCC(=O)C(CCN1CCOCC1)(c1ccccc1)c1ccccc1 | inconclusive [inhibitor, partial curve] |  |
| N#CC(C#N)=Cc1ccc(C=C(C#N)C#N)cc1 | active: 3.66 µM |  |
| COC(=O)CC(=O)c1ccc2c(c1)OCO2 | inconclusive [inhibitor, full curve, poor fit] |  |
| CN1CCCC(=C(c2cccs2)c2cccs2)C1 | inconclusive [inhibitor, single point] |  |
| O=C(N/N=C/c1cccnc1)c1ccc(NC(=O)C(c2ccccc2)c2ccccc2)cc1 | active: 7.31 µM |  |
| Cc1ccc(NC(=O)c2cn(CCC#N)nc2-c2ccc3c(c2)OCCO3)c([N+](=O)[O-])c1 | inconclusive [inhibitor, partial curve, poor fit] |  |
| C#C[C@]1(O)C=C[C@H]2[C@@H]3CCC4=CC(=O)CC[C@@H]4[C@H]3CC[C@@]21CC | active: 15 µM |  |
| CCCCn1c(=O)c(C(=O)Nc2ncccc2C)c(O)c2ccccc21 | inconclusive [inhibitor, single point] |  |
| CCN1CCN(Cc2ccc(C)cc2)CC1 | inactive |  |
| Cc1cc(C)cc(NC(=O)CN2C(=O)CN=C(c3ccccc3)c3cc(Cl)ccc32)c1 | active: 20.6 µM |  |
| O=P1(c2ccccc2)CC=CC1 | inactive |  |
| CCc1ccccc1Nc1nn2c(=O)c3ccc(C(=O)Nc4cc(C)cc(C)c4)cc3nc2s1 | active: 8.2 µM |  |
| CCOC(=O)[C@]12Cc3cc(C)ccc3[C@H]1N(Cc1ccccc1)C(=O)c1cc(OC)ccc12 | inconclusive [inhibitor, single point] |  |
| COc1cccc(-n2c(/C=C\c3ccc(Cl)cc3)nc3ccccc3c2=O)c1 | inconclusive [inhibitor, single point] |  |
| O=c1[nH]c(=O)n(Cc2ccccc2)c(O)c1/C=C1\C=Nc2ccccc21 | inconclusive [inhibitor, single point] |  |
| c1cnc2c(c1)ncn2C1CCNCC1 | inconclusive [inhibitor, single point] |  |
| CC(C)C(=O)N1CCC(CN=Cc2c(O)n(C3CCCCC3)c(=O)n(C3CCCCC3)c2=O)CC1 | inconclusive [inhibitor, single point] |  |
| CC(=O)c1c(O)c(C)c(O)c2c1OC1=Cc3c(c(C)nn3-c3ccccc3)C(=O)C12C (stereo unspecified) | active: 23.1 µM |  |
| Nc1cc(Cl)cc(Cl)c1 | inactive |  |

| Structure (SMILES) | Potency | activity change, negative = growth inhibition |
| --- | --- | --- |
| Brc1ccc2c(c1)CN(CC1CCCCC1)Cc1cnnn1-2 | inconclusive [inhibitor, single point] |  |
| O=C1NC(=O)C(=O)C(=O)N1 | inconclusive [inhibitor, full curve, poor fit] |  |
| CCc1ccc(NC(=O)CN2CC(c3ccccc3)CC2=O)cc1 (stereo unspecified) | inactive |  |
| Cc1ccc(C(C)(C)C)c(OCC(=O)Nc2ccc(Cl)cc2C(=O)c2ccccc2)c1 | inactive |  |
| Cn1c(=O)c2c(nc(N/N=C/c3c(O)n(C4CCCCC4)c(=S)[nH]c3=O)n2C)n(C)c1=O | inconclusive [inhibitor, single point] |  |
| C[C@H](NC(=O)[C@@H](N)Cc1ccc(O)cc1)C(=O)N[C@@H](Cc1ccccc1)C(=O)N[C@@H](Cc1ccccc1)C(N)=O |  | inactive: -2.08% [at 4.12 µM] |
| CC1CC[C@@]2(NC1)O[C@@H]1C[C@H]3C4CC=C5C[C@@H](O)CC[C@]5(C)C4CC[C@]3(C)[C@H]1[C@@H]2C (stereo partly specified) | inactive |  |
| C[C@@H](Cc1ccc(OCC(=O)O)cc1)NC[C@H](O)c1cccc(Cl)c1 | inactive |  |
| Cc1ccccc1OCCN=Cc1c(O)n(C)c(=O)n(C)c1=O | inconclusive [inhibitor, partial curve] |  |
| CCOC(=O)[C@]12Cc3c(cc(OC)c(OC)c3OC)[C@H]1N(C(C)C)C(=O)c1cc(OC)ccc12 | active: 9.2 µM |  |
| Cc1ccc(OCC(=O)N2CCN(Cc3ccc(F)cc3)CC2)cc1 | inactive |  |
| NS(=O)(=O)c1ccc(CCNc2ccn3nc(-c4cccc(C(F)(F)F)c4)cc3n2)cc1 | inconclusive [inhibitor, single point] |  |
| Cc1cccc(N2CCN(C(=O)CCNS(=O)(=O)c3ccc4c(c3)oc(=O)n4C)CC2)c1C | inconclusive [inhibitor, single point] |  |
| CN(C)c1ccc(CCN2CCOCC2)cc1 | inactive |  |
| COC(=O)C1=C(c2ccc(F)cc2OCc2ccccc2)C[C@@H]2CC[C@H]1N2C(=O)NCc1cc(C)oc1C(F)(F)F | active: 20.6 µM |  |
| Cc1cc(C=C2C(=O)NC(=S)NC2=O)c(C)n1-c1ccc2c(c1)OCO2 | inconclusive [inhibitor, single point] |  |
| O=C1C2CCCC1C(N1CCCC1)CC2 (stereo unspecified) | inactive |  |
| CCOC(=O)[C@]12Cc3cc(Cl)ccc3[C@H]1N(CC(=O)OC)C(=O)c1ccccc12 | active: 9.2 µM |  |
| COc1cccc(NP(=O)(Oc2ccccc2)Oc2ccccc2)c1 | active: 5.17 µM |  |
| Cc1c(C(C)(C)C)s/c(=N/S(=O)(=O)c2ccccc2)n1C | inconclusive [inhibitor, single point] |  |
| COc1cc2c(cc1OC)[C@@H]1C(=O)c3ccc4oc(C(C)C)cc4c3OC1CO2 (stereo partly specified) | active: 0.651 µM |  |
| CC(=NCCN1CCOCC1)c1c(O)n(Cc2ccccc2)c(=O)[nH]c1=O | inactive |  |
| N#CCCn1cc(C(=O)Nc2ccccc2Br)c(-c2ccc3c(c2)OCCO3)n1 | inactive |  |
| CN(C)C(=S)SSC(=S)N(C)C | active: 9.2 nM and active: 133 nM and active: 146 nM |  |

| Structure (SMILES) | Potency | activity change, negative = growth inhibition |
| --- | --- | --- |
| COC(=O)C1=C(c2ccc(OC)c(OC)c2)C[C@@H]2CC[C@H]1N2C(=O)NCCOc1ccccc1Cl | inconclusive [inhibitor, single point] |  |
| COC(C(=O)C(O)C(C)O)C1Cc2cc3cc(OC4CC(OC5CC(O)C(O)C(C)O5)C(O)C(C)O4)c(C)c(O)c3c(O)c2C(=O)C1OC1CC(OC2CC(OC3CC(C)(O)C(O)C(C)O3)C(O)C(C)O2)C(O)C(C)O1 (stereo unspecified) | active: 0.158 µM |  |
| C[C@@]1(CO)[C@H](O)CC[C@@]2(C)[C@H]1CC[C@H]1C[C@@H]3C[C@@]12CC[C@]3(O)CO | active: 0.104 µM |  |
| C[C@H]1[C@@H](OC(=O)CCC(=O)O)O[C@@H]2OC3(C)CC[C@H]4[C@H](C)CC[C@@H]1[C@@]24OO3 | active: 0.119 µM |  |
| CCOC(=O)c1c(N)n(CCN2CCOCC2)c2nc3ccccc3nc12 | inactive |  |
| CSc1nc2ccccc2n1C(=O)Oc1ccccc1 | inconclusive [inhibitor, partial curve] |  |
| S=C(NCCc1ccccc1)N1Cc2cc(-c3ccccc3)ccc2-n2nncc2C1 | inconclusive [inhibitor, single point] |  |
| CC1=C(C)CN2CC(C#N)=C(N)C2C1 (stereo unspecified) | inconclusive [inhibitor, single point] |  |
| C[C@H]1CN([C@@H](C)CO)C(=O)c2cc(-c3cccnc3)cnc2O[C@H]1CN(C)Cc1ccc(Oc2ccccc2)cc1 | inconclusive [inhibitor, single point] |  |
| CN1C(=O)N(C)C(=O)C2(Cc3cc(NC(=O)c4ccc(F)cc4)ccc3N3CCCC32)C1=O (stereo unspecified) | inconclusive [inhibitor, single point] |  |
| CN1[C@@H]2CC[C@H]1CC(OC1c3ccccc3CCc3ccccc31)C2 (stereo partly specified) | active: 8.2 µM |  |
| CCOc1ccc(S(=O)(=O)N(CC(=O)NCc2ccccc2OC)c2ccccc2)cc1 | active: 14.6 µM |  |
| O=C(Oc1ccc(Cl)c2ccccc12)N1CCCCC1 | inconclusive [inhibitor, partial curve, poor fit] |  |
| COC(=O)C1=C(c2cccc(OCc3ccccc3)c2)C[C@@H]2CC[C@H]1N2C(=O)NCCc1ccc(F)cc1 | inconclusive [inhibitor, single point] |  |
| O=C(NCCCN1CC1)Nc1cccc2ccccc12 | active: 1.64 µM |  |
| Oc1ccc([C@H]2CNCc3c2ccc(O)c3O)cc1O | inconclusive [inhibitor, single point] |  |
| Cn1nc(-c2ccc(OCC(=O)N3CCN(Cc4ccccc4)CC3)cc2)c2ccccc2c1=O | active: 10.3 µM and active: 13 µM |  |
| CCOC(=O)c1ccc(N=C(CC)c2c(O)n(C)c(=O)n(C)c2=O)cc1 | inconclusive [inhibitor, single point] |  |
| Cc1ccnc(-n2c(C)nc3ccccc3c2=O)c1 | inactive |  |
| CCCN(CCC)[C@@H]1CCc2c(OC)cccc2[C@@H]1C | inconclusive [inhibitor, partial curve, poor fit] | inconclusive: -33.7% [inhibitor] |
| C=CCN1C(=O)NC(=O)/C(=C\c2ccc(-c3ccccc3[N+](=O)[O-])o2)C1=O | inconclusive [inhibitor, single point] |  |
| O=c1c2ccccc2nc(CSc2ncnc3nc[nH]c23)n1-c1ccc(Cl)c(Cl)c1 | active: 7.08 µM |  |
